# Reference: PubChem BioAssay AID686979 (National Center for Advancing Translational Sciences (NCATS), 2013)
# “And” between values parts separate entries of the source, which are not always exact repeats. Equal values may be shown once. Out of some 420,000 compounds screened, about 50,000 (12%) were called active. The shares of active, inactive and inconclusive entries below differ from those in the screen. Calls follow the shape of the dose curve; as a rule, active = well fitted inhibition curve with a large enough effect; inconclusive = small, poorly fitted or top-dose-only effect; inactive = flat fitted curve, though single readings scatter. A potency beside an inconclusive call is a rough fit, not a confirmed value.
# Assay: qHTS for Inhibitors of human tyrosyl-DNA phosphodiesterase 1 (TDP1): qHTS in cells in presence of CPT; also: nearly all actives have a fitted effect of over 55% in size
# Conditions: chicken DT40 Tdp1-/-;hTDP1 cells + 20 nM CPT, ATP luminescence, 48 h; activity change, negative = growth inhibition: at 46.2 µM (top of the series)
# Method in brief: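 Chicken DT40 Tdp1-/- cells stably complemented with human TDP1 were seeded at 400 cells/well in medium containing 20 nM camptothecin, exposed to pin-transferred compounds, and grown at 37 °C for at least 48 hr. Viability was read as ATP luminescence.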
# % is scaled to controls: 0 for no effect and ±100 for the full control effect; potency is read from the fitted curve at half-maximal effect; tags tell the direction and shape of the fitted curve.
SMILES,Potency,"activity change, negative = growth inhibition"
Cc1c(C(=O)Nc2cccc(S(=O)(=O)N3CCOCC3)c2)oc2ccccc12,"inconclusive: 29.1 µM [inhibitor, single point]",
COc1ncnc2c1sc1nc(-c3ccccc3)c3c(c12)CCCC3,"inconclusive: 29.1 µM [inhibitor, single point]",
COc1ccc(CNC(=O)c2ccc(N(C)S(=O)(=O)c3ccc(C)cc3)cc2)cc1,"inconclusive: 16.4 µM [inhibitor, single point]",
O=C(CCCOc1ccccc1)Nc1cc(S(=O)(=O)N2CCOCC2)ccc1N1CCOCC1,"inconclusive: 18.4 µM [inhibitor, single point]",
COc1cc(O)c(CCC(=O)c2cc(OC)c(OC)c(OC)c2)c(OC)c1,active: 20.6 µM,
Cn1cc(C(=O)NCc2ccccc2Cl)c(=O)c2cc(S(=O)(=O)N3CCCCCC3)ccc21,"inconclusive: 29.1 µM [inhibitor, single point]",
CCOC(=O)c1c(S(=O)(=O)N2CCC(C(=O)N3CCN(c4ccccc4F)CC3)CC2)c(C)n(C)c1C,"inconclusive: 16.4 µM [inhibitor, single point]",
Cc1ccc(NCc2ccccc2F)cc1,"inconclusive: 29.1 µM [inhibitor, single point]",
COc1ccc(N2C(=O)c3ccccc3NC(=O)C2C(=O)NCC(C)C)cc1 (stereo unspecified),,inactive: 9.4%
O=C(NC(=S)NCCC1=CCCCC1)c1ccccc1Br,"inconclusive: 29.1 µM [inhibitor, single point]",
O=C(Cc1ccccc1)NCC(=O)OCC(=O)c1ccc(Cl)c([N+](=O)[O-])c1,"inconclusive: 29.1 µM [inhibitor, single point]",
COc1cc(Cl)c(C)cc1NC(=O)CCc1nc2cccnc2n1Cc1cccs1,"inconclusive: 18.4 µM [inhibitor, single point]",
COc1ccc(CN2C[C@H](Cc3ccccc3)[C@@H](CC(=O)Nc3ccccc3)C2=O)cc1,active: 22.4 µM,
O=C(Nc1ccc2c(c1)OCO2)c1ccc(S(=O)(=O)NCC2CCCO2)cc1 (stereo unspecified),"inconclusive: 20.6 µM [inhibitor, single point]",
CC(=O)NC(c1ccc(F)c(F)c1)c1nc(-c2cccc(C(F)(F)F)c2)cs1 (stereo unspecified),"inconclusive: 18.4 µM [inhibitor, single point]",
CCOC(=O)c1ccc(NC(=O)CCCn2c(=O)c3cccn3c3cccnc32)cc1,"inconclusive: 14.6 µM [inhibitor, partial curve, poor fit]",
COc1ccccc1-c1nnc(NC(=O)CCS(=O)(=O)c2ccccc2)o1,active: 23.1 µM,
COc1ccc(OCCC(=O)NCC23CC4CC(CC(C4)C2)C3)cc1,"inconclusive: 29.1 µM [inhibitor, single point]",
CCCN(Cc1nnc(-c2ccccc2Cl)o1)C(=O)COc1ccc(Cl)cc1,"inconclusive: 18.4 µM [inhibitor, single point]",
O=C(CCCN1C(=O)/C(=C/c2ccccc2OC(F)F)SC1=S)Nc1cccnc1,active: 25.9 µM,
COc1ccc(CCNC(=O)c2cn(C)c3ccc(S(=O)(=O)N4CCOCC4)cc3c2=O)cc1OC,"inactive and inconclusive: 29.1 µM [inhibitor, single point]",

SMILES,Potency,"activity change, negative = growth inhibition"
O=C(Nc1cccnc1)c1ccc(Cl)c(S(=O)(=O)N2CCCC2)c1,,inactive: -27.3%
CC1(Cc2ccccc2OC(F)(F)F)C(=O)Nc2c(Cl)ccc(Cl)c21 (stereo unspecified),active: 16.4 µM,
CC(C)N(Cc1ccccc1)C(=O)Cn1ncc2c3ccccc3n(Cc3ccccc3)c2c1=O,"inconclusive: 23.1 µM [inhibitor, single point]",
C=C(C)COc1ccc(-c2[nH]ncc2Oc2ccc(OC)cc2)c(O)c1,"inconclusive: 16.4 µM [inhibitor, single point]",
O=C(Nc1nnc(Cc2ccccc2F)s1)Nc1ccccc1F,"inconclusive: 29.1 µM [inhibitor, single point]",
CC1(C)Cc2c(C#N)c(N3CCN(C(=O)c4ccccc4)CC3)nc(-c3ccco3)c2CS1,"inconclusive: 18.4 µM [inhibitor, single point]",
Cc1nn(-c2ccc(Cl)cc2)c2nc(-c3cccnc3)cc(C(F)(F)F)c12,,inactive: 14.9%
CN(C1CCS(=O)(=O)C1)S(=O)(=O)c1ccc(C2CCCCC2)cc1 (stereo unspecified),"inconclusive: 29.1 µM [inhibitor, single point]",
CS(=O)(=O)N1CCN(c2ccccc2NC(=O)Cc2ccccc2)CC1,"inconclusive: 29.1 µM [inhibitor, single point]",
Clc1ccc(-n2ncc3c(NCCCn4ccnc4)ncnc32)cc1,"inconclusive: 14.6 µM [inhibitor, partial curve]",
C=CCN(CC=C)C(=O)c1ccc2nc(Cc3ccc(OC)c(OC)c3)oc2c1,"inconclusive: 29.1 µM [inhibitor, single point]",
Cc1cccc(Cn2c(SCc3ccc(C(=O)NC4CCCC4)cc3)nc3cccnc32)c1,"inconclusive: 11.6 µM [inhibitor, single point]",
COc1cc2c(NC3CCN(C)CC3)nc(N3CCCCC3)nc2cc1OCCOCCN(C)C,active: 11.2 µM,
O=C(CNC(=O)c1sc2ccccc2c1Cl)NCc1ccc(F)cc1,"inconclusive: 18.4 µM [inhibitor, single point]",
Cc1cc(NC(=O)CSc2nc3ccccc3c(=O)n2CCCC(=O)NCc2ccco2)n[nH]1,"inconclusive: 3.66 µM [inhibitor, single point]",
CCOc1ccc(C(C(=O)NC(C)(C)C)N(CCOC)C(=O)CCC(=O)Nc2ccccn2)cc1 (stereo unspecified),,inactive: 23.1%
CC1=C(C(=O)OCc2ccccc2)C(c2cccc([N+](=O)[O-])c2)NC(=O)N1 (stereo unspecified),"inconclusive: 18.4 µM [inhibitor, single point]",
COc1ccc(OC)c(CNC(=O)c2ccc(NC(=O)c3nsc4ccccc34)cc2)c1,"inconclusive: 23.1 µM [inhibitor, single point]",
CC(C)(C)NC(=O)COc1ccc(S(=O)(=O)N2CCCC2)cc1,,inactive: -6.17%
CCOC(=O)CN1C(=O)C(CC)Oc2ccc(Cl)cc21 (stereo unspecified),,inactive: -18.3%
